Test results published in the antibiotic and cytotoxicity screens of Wong et al. (2023).
This is one part of the list.

How the values were obtained:
[1] = tested on: HSkMC (human skeletal muscle cells); assay: cytotoxicity call (relative viability < 0.9); details: 10 µM
[2] = tested on: HepG2; assay: cytotoxicity call (relative viability < 0.9); details: 10 µM
[3] = tested on: S. aureus RN4220; assay: growth inhibition call (relative growth <= 0.2); details: 50 µM

| SMILES | cytotoxicity call [1] | cytotoxicity call [2] | growth inhibition call [3] |
| --- | --- | --- | --- |
| Cc1noc(C)c1S(=O)(=O)N(C)C[C@@H]1OCc2cnnn2CCCC(=O)N([C@H](C)CO)C[C@@H]1C | inactive | inactive | inactive |
| COc1ccc(S(=O)(=O)N2C[C@H](O)COC[C@@H]3O[C@@H](CC(=O)N[C@@H]4CCN(Cc5ccccc5)C4)CC[C@H]32)cc1 | inactive | inactive | inactive |
| C[C@@H]1CN([C@@H](C)CO)C(=O)c2cccc(NS(=O)(=O)c3ccc(F)cc3)c2O[C@@H]1CN(C)C(=O)Nc1cccc2ccccc12 | inactive | inactive | inactive |
| CCOC(=O)c1cc2c(c(-c3cccc(C#CCN(C)C)c3)n1)[C@@H](CCO[Si](C)(C)C(C)(C)C)N([S@](=O)C(C)(C)C)C2 | inactive | active | inactive |
| C[C@@H]1CCCCO[C@H](CN(C)Cc2ccc3c(c2)OCO3)[C@H](C)CN([C@@H](C)CO)C(=O)c2cc(NS(=O)(=O)c3ccc(Cl)cc3)ccc2O1 | inactive | active | inactive |
| C[C@@H]1CN([C@H](C)CO)C(=O)c2cccc(NC(=O)Nc3ccc(C(F)(F)F)cc3)c2O[C@@H]1CN(C)S(C)(=O)=O | inactive | inactive | inactive |
| CN1C(=O)c2cc(NC(=O)c3cccs3)ccc2OC[C@@H]2O[C@@H](CC(=O)NCC(F)(F)F)CC[C@@H]21 | inactive | inactive | inactive |
| C[C@@H]1CN([C@@H](C)CO)C(=O)c2cccc(NC(=O)C3CCOCC3)c2O[C@H]1CN(C)S(=O)(=O)c1ccc(Cl)cc1 | inactive | inactive | inactive |
| O=C(Cc1ccncc1)Nc1ccc2c(c1)[C@@H]1C[C@@H](CC(=O)N3CCc4ccccc4C3)O[C@@H](CO)[C@@H]1O2 | inactive | inactive | inactive |
| COCC#Cc1cnc2c(c1)C(=O)N([C@H](C)CO)C[C@@H](C)[C@@H](CN(C)C(=O)CCN1CCCCC1)O2 | inactive | inactive | inactive |
| C[C@@H]1CCCCO[C@H](CN(C)C(=O)C2CCCCC2)[C@H](C)CN([C@@H](C)CO)C(=O)c2cc(NC(=O)NC3CCCCC3)ccc2O1 | inactive | active | inactive |
| C[C@H](CO)N1C[C@H](C)[C@H](CN(C)Cc2ccncc2)OCCCC[C@H](C)Oc2ccc(NC(=O)Cc3ccccc3)cc2C1=O | inactive | inactive | inactive |
| C[C@@H]1CN([C@@H](C)CO)C(=O)Cc2cc(NC(=O)Nc3ccc(C(F)(F)F)cc3)ccc2O[C@@H]1CN(C)Cc1ccc(Oc2ccccc2)cc1 | active | active | inactive |
| C[C@@H]1CN([C@@H](C)CO)C(=O)c2cccc(NC(=O)Nc3ccc(C(F)(F)F)cc3)c2O[C@@H]1CN(C)C(=O)NC1CCCCC1 | inactive | inactive | inactive |
| O=C(O)c1ccc(S(=O)(=O)N(Cc2ccc(OC(F)(F)F)cc2)c2ncc(C(F)(F)F)cc2Cl)cc1 | inactive | inactive | active |
| Cn1c(=O)c2c(ncn2C[C@@H](O)CO)n(C)c1=O | inactive | inactive | inactive |
| C[C@H](CO)N1C[C@H](C)[C@@H](CN(C)Cc2cccc3c2OCCCO3)OCc2cnnn2CCCC1=O | inactive | inactive | inactive |
| CCn1c2c(ccc1=O)C[C@H](N)CC2 | inactive | inactive | inactive |
| CN(C)CCCNC(=O)C[C@@H]1CC[C@@H]2[C@H](COC[C@@H](O)CN2S(=O)(=O)c2ccc(Cl)cc2)O1 | inactive | inactive | inactive |
| CC(C)=CCc1c(O)cc2oc(C)cc(=O)c2c1O | inactive | inactive | inactive |
| Cn1ncc2c(NN3C(=O)CCC3=O)ncnc21 | inactive | inactive | inactive |
| C[C@H](CO)N1C[C@H](C)[C@H](CN(C)C(=O)Nc2cccc3ccccc23)Oc2ccc(NC(=O)Cn3cnnn3)cc2CC1=O | inactive | inactive | inactive |
| C[C@H]1CN([C@@H](C)CO)C(=O)c2cc(NC(=O)Cn3cnnn3)ccc2O[C@@H]1CN(C)Cc1ccc(Oc2ccccc2)cc1 | inactive | inactive | inactive |
| C[C@@H]1CCCCO[C@H](CN(C)S(=O)(=O)c2ccc(F)cc2)[C@@H](C)CN([C@H](C)CO)C(=O)c2cc(NC(=O)Nc3ccc4c(c3)OCO4)ccc2O1 | inactive | active | inactive |
| Cc1cn([C@@H]2C[C@@H](O)[C@H](CO)O2)c(=O)[nH]c1=O | inactive | inactive | inactive |
| C[N+]1(C)C[C@@H](O)C[C@H]1C(=O)O | inactive | inactive | inactive |
| C[C@H](CO)N1C[C@H](C)[C@H](CN(C)Cc2ccc(Oc3ccccc3)cc2)Oc2ccc(NC(=O)C3CCCCC3)cc2CC1=O | inactive | active | inactive |
| C[C@H]1CN([C@@H](C)CO)C(=O)c2cccc(NS(C)(=O)=O)c2O[C@H]1CN(C)Cc1ccc(C(F)(F)F)cc1 | inactive | inactive | inactive |

| SMILES | cytotoxicity call [1] | cytotoxicity call [2] | growth inhibition call [3] |
| --- | --- | --- | --- |
| C[C@@H]1CCCCO[C@H](CN(C)C(=O)Nc2ccc3c(c2)OCO3)[C@@H](C)CN([C@@H](C)CO)C(=O)c2cc(NC(=O)c3ccncc3)ccc2O1 | inactive | inactive | inactive |
| CC(C)CNC(=O)CSc1nnc[nH]1 | inactive | inactive | inactive |
| Cc1noc(C)c1NC(=O)Nc1ccc2c(c1)CC(=O)N([C@H](C)CO)C[C@@H](C)[C@H](CN(C)CC1CC1)O2 | inactive | inactive | inactive |
| Cc1noc(C)c1NC(=O)N[C@@H]1C=C[C@H](CC(=O)N2CCN(C)CC2)O[C@H]1CO | inactive | inactive | inactive |
| C[C@H](O)C#Cc1ccc2c(c1)O[C@@H](CN(C)C(=O)Cc1ccccn1)[C@@H](C)CN([C@H](C)CO)S2(=O)=O | inactive | inactive | inactive |
| Cc1noc(C)c1S(=O)(=O)Nc1ccc2c(c1)C(=O)N([C@@H](C)CO)C[C@H](C)[C@H](CN(C)Cc1ccc(Cl)c(Cl)c1)OCCCC[C@@H](C)O2 | inactive | inactive | inactive |
| C[C@@H]1CN([C@H](C)CO)C(=O)c2cc(NC(=O)Nc3ccc4c(c3)OCO4)ccc2O[C@@H](C)CCCCO[C@H]1CN(C)Cc1ccc2c(c1)OCO2 | inactive | inactive | inactive |
| C[C@H](CO)N1C[C@H](C)[C@@H](CN(C)C(=O)Nc2ccc(F)cc2)Oc2c(NC(=O)Nc3ccc(C(F)(F)F)cc3)cccc2C1=O | inactive | inactive | inactive |
| C[C@@H]1CCCCO[C@H](CN(C)Cc2ccncc2)[C@H](C)CN([C@H](C)CO)C(=O)c2cc(NC(=O)c3ccccc3)ccc2O1 | inactive | inactive | inactive |
| CCCC#Cc1ccc2c(c1)O[C@H](CN(C)S(=O)(=O)c1cccc(OC)c1)[C@@H](C)CN([C@H](C)CO)S2(=O)=O | inactive | inactive | inactive |
| C[C@H]1CN([C@@H](C)CO)C(=O)c2cc(C#CC3(O)CCCC3)cnc2O[C@@H]1CN(C)C(=O)Nc1ccc2c(c1)OCO2 | inactive | inactive | inactive |
| C[C@@H]1CN([C@@H](C)CO)C(=O)Cc2cc(NS(=O)(=O)c3cn(C)cn3)ccc2O[C@@H]1CN(C)Cc1ccccc1 | inactive | inactive | inactive |
| C[C@@H]1CN([C@@H](C)CO)S(=O)(=O)c2ccc(-c3ccc(C(=O)N(C)C)cc3)cc2O[C@H]1CN(C)C(=O)Cc1ccccn1 | inactive | inactive | inactive |
| C[C@H]1CCCCO[C@@H](CN(C)C(=O)c2ccccc2)[C@@H](C)CN([C@@H](C)CO)C(=O)c2cc(NS(=O)(=O)c3cccs3)ccc2O1 | inactive | inactive | inactive |
| C[C@@H]1CN([C@H](C)CO)C(=O)Cc2cc(NS(=O)(=O)c3cn(C)cn3)ccc2O[C@H]1CN(C)Cc1ccncc1 | inactive | inactive | inactive |
| C[C@@H]1CCCCO[C@H](CN(C)S(=O)(=O)c2ccc(F)cc2)[C@@H](C)CN([C@@H](C)CO)C(=O)c2cc(NC(=O)Nc3ccc(F)cc3)ccc2O1 | inactive | inactive | inactive |
| O=C(NCCCN1CCOCC1)Nc1ccc(Cc2ccc(NC(=O)NCCCN3CCOCC3)cc2)cc1 | inactive | inactive | inactive |
| COc1ccccc1S(=O)(=O)N(C)C[C@H]1OCc2cnnn2CCCC(=O)N([C@@H](C)CO)C[C@H]1C | inactive | inactive | inactive |
| C[C@@H]1CCCCO[C@@H](CN(C)C(=O)CCC(F)(F)F)[C@H](C)CN([C@H](C)CO)C(=O)c2cc(NC(=O)c3ccccc3)ccc2O1 | inactive | inactive | inactive |
| CN1CCN(C(=O)C[C@@H]2CC[C@H](NC(=O)Cc3ccccn3)[C@@H](CO)O2)CC1 | inactive | inactive | inactive |
| CO[C@H]1O[C@H](CO)[C@@H](OC(=O)Nc2ccccc2-c2ccccc2)[C@H](OC(=O)Nc2ccccc2)[C@@H]1OC(=O)Nc1ccccc1 | inactive | active | inactive |
| O=C(C[C@H]1CC[C@@H]2[C@H](COC[C@H](O)CN2C(=O)c2ccc3c(c2)OCO3)O1)NCCN1CCCC1 | inactive | inactive | inactive |
| C[C@@H]1CN([C@H](C)CO)S(=O)(=O)c2ccc(C#Cc3ccncc3)cc2O[C@H]1CN(C)S(=O)(=O)c1ccc(F)cc1 | inactive | active | inactive |
| C[C@@H]1CN([C@@H](C)CO)C(=O)c2cccc(NS(=O)(=O)c3cn(C)cn3)c2O[C@@H]1CN(C)S(C)(=O)=O | inactive | inactive | inactive |
| COCC#Cc1cnc2c(c1)C(=O)N([C@H](C)CO)C[C@@H](C)[C@@H](CN(C)C(=O)Nc1ccccc1OC)O2 | inactive | inactive | inactive |
| C[C@H]1CN([C@@H](C)CO)C(=O)c2ccccc2-c2ccccc2CO[C@H]1CN(C)S(=O)(=O)c1cn(C)cn1 | inactive | inactive | inactive |
| COc1ccc([C@H]2CC=CC[C@@H](C)Oc3ccccc3C(=O)N(C)[C@H](Cc3ccccc3)C(=O)N2)c(OC)c1 | inactive | inactive | inactive |
